Assay results from the supplement of paper PMC10126150.
Sequences with one replicate were seen in a single cluster, so their values are uncertain.

Tested on: ATP
Experiment: switch fluorescence ratio, 500 uM ATP over buffer (Cy3 cluster intensity, sum of 5 cycles each) (fold (ratio)); higher = stronger signal-on switching upon ATP binding; sequences stand for … in TCGTCGGCAGCGTCAGATGTGTATAAGAGACAGTTTTTTTTTTTTTTTTTTTTTTTTT…TC
Settings: aptamer strand: ATP DNA aptamer (quencher-CACCTGGGGGAGTATTGCGGAGGAAGG + anchor), 100 nM annealed; ATP concentration: 500 uM; one replicate
Procedure, shortened: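 Clusters with intensities outside 100-1000 RFU were excluded. The remaining Cy3-labelled switching-strand clusters on a modified Illumina MiSeq flow-cell had been annealed to 100 nM quencher-labelled ATP aptamer and imaged in selection buffer, then after 15 min with 500 uM ATP at 22 °C, for five cycles separated by NaOH stripping and re-annealing. The fluorescence ratio, averaged per switch-domain sequence, is each cluster's summed target-cycle Cy3 intensity over its summed buffer-cycle Cy3 intensity.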
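Note: ATP exposure 15 min at 22 °C before imaging.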

Sequence	switch fluorescence ratio
GCTCTTAACT	1.05
AACTTTGTTC	1.03
GGCCGTCTGA	0.965
AACTGGTCTT	0.948
GCCTCATTGC	1.11
TAAGATAACC	0.987
CAGGCTGCCA	1.01
GCTCAGGTTC	1.05
GACAGGTGCA	1.99
TGTCGGAATT	0.972
TCTTAAACGA	1.01
GCATTACCAA	1.08
TCTTGGTTC	1.05
ATAAGGCGTG	0.987
GGGAATTTCC	1.02
TCCAGTTTGG	0.983
TGCTCACA	1.02
ATCTAAGATT	1.03
AGTAGTTATC	1.02
CGAATTAGCG	1
GTTATAGGTC	1.01
AATCCCGAGG	1.14
ACGGCTACCT	1.37

Sequence	switch fluorescence ratio
GCTGATACAT	1
CAGGGCGATT	1.01
GGTGTCTCGC	0.987
GGAGGTGGTG	0.967
CGTAGTACTT	1.13
GACATAATTT	0.987
CATACGAGAG	1.05
CACTCTATT	1.09
AATGAATGCC	0.956
ATAGTTGCAG	0.987
TGGACAAGTG	0.98
GCAGCCGTAG	1.03
TAGCAGAACA	0.946
CTACAGCTAA	1.48
CGGTATTGTT	1.02
AGGCATCAGG	1
TCTGTAGTAG	0.987
CCGAAGTTTA	1.93
GCTATGAGCT	1.02
CGCTTTGACA	0.997
CGTCGGTTGT	0.988
TGGGTATTG	1.01
ACATTCAGAA	0.961

Sequence	switch fluorescence ratio
ACTCTGGA	1.04
GGGTAGTATA	0.975
AGTATCTTGT	1.02
TCTAGTCACC	1.05
ACGGCATT	0.986
GGTCAACTCA	0.956
CCATTTTACC	1
CGACAGAGAC	1.59
AACTTTTTCA	0.998
TCGGAGTACG	1.01
GCCCAGACGA	1.14
TTTGTTATAC	1.31
TACTCGTGTG	0.997
ATACTTGATC	1.02
ACTGGACTT	1.21
GTTCTCTGTA	1.02
CATAAGAGCT	1.01
ACTGGGTTAA	0.987
AATCTTGCTG	0.971
GTTTGAGCG	1.03
ATAATCGACT	0.999
CCGGCGGATG	0.996
AGAATGCTTG	1.02

Sequence	switch fluorescence ratio
TGACGGGCTG	1.01
GAACTTCGAC	1.12
CAAGTTAGGT	0.971
GTTCCAGATA	1.02
TGTGACCGGA	0.935
TAGGATAGCC	0.981
TCGAAACCAT	1.05
ATTAGATTTA	1.01
GGGGTCAAAT	0.991
AGAAATGCAG	1.05
CCGTCTTGGA	0.958
GTGAACGCTT	1.12
AAAAGACAGA	0.98
TGGAAATAAT	1.01
ATGCCCGATG	0.971
ACCTAGAAGT	0.987
CGACTCAGG	1.11
CTTTAGAGGC	1.12
GAGCAACGGT	1.08
TTATATATA	0.952
ACCCATTTTC	1.05
AAAGCATTGG	1.04
AGAACGTACG	1.29

Sequence	switch fluorescence ratio
TGAACGGTTA	1.03
CGTTCCCGGG	1.12
GAAGTAAGTG	0.968
ATTAAATGTC	0.992
AAATAAGGT	1.01
GGTCCGGACT	0.972
GCGATACGGT	3.08
GAATGGTCGG	1
ACACTTAAAG	1.02
TGTGGGATTA	0.971
GTCTAATGCA	0.992
GTATTCGCT	0.986
CATTGTTTAA	0.991
AGTCCGAGTC	1.04
CCCACGGGT	1.84
GTCCCGTGCC	1.07
TCAGCGAGGC	1.36
GCCTCATGTA	1.02
ACCAGTCGCT	0.984
GGTCCCTGTG	1.01
AGATGTTAGT	1
ATCCTGGCGG	0.985
AAGGAGCGAT	1.11

Sequence	switch fluorescence ratio
TTCCGGCGGC	1.02
CGCGCTCAAA	1.01
TTGATAAACC	1.06
ATGATGTTGG	0.983
AGTAAGTAAA	1.04
CAGGGAGTCT	0.994
GTAGCTGGAA	0.994
CCATAGACTT	1.02
AATTCGCTCG	0.988
AAATTTGGCG	0.979
GGAACGTATA	1.08
CAAAGTTTTT	1.07
ACGTGGCTGT	1.01
TTAGGAGTAG	0.966
ATTGCCCTGG	1.04
GTCGAGTCGA	0.994
ACGTGTTCTG	0.954
ATAACTGGGA	0.997
AAGGATCAAC	1
TACTCATAAC	1.04
TTATGTGTGC	1.04
TGACGACTAT	1.16
GTGGTTGGCG	1.02

Sequence	switch fluorescence ratio
ATGGAGAAGA	1.02
TGCCTAGAG	1.01
TAGCGCCAGC	0.991
AGAGTGCATT	1.05
ATAGGGCAAT	1.22
TTGCCGGCCT	1.06
GGCCGTCTGT	0.992
CCGGCGCCTA	1.26
GTCTCTGGTA	0.999
TTCCTTGATT	1.03
ATGACTAA	1.02
GAAAATTCCG	1.02
GGCCAGCATA	1.06
TCTCGCTGTG	1
ATCTTTGCGC	1
GCCCGAAACT	0.996
CGCCCTGACA	1.03
GGCCGTCCTT	0.967
GACTTAAT	0.985
